From PMC4336329 (PLoS ONE, 2015)
Out of some 310,000 compounds screened, about 2,200 (0.71%) showed an effect of 50% or more. Effects have a minus sign here. The list shows a part of the results.

target: human ether-à-go-go-related gene (hERG) potassium channel (human, UniProt Q12809); experiment: primary screen, population patch clamp on CHO cells stably expressing hERG
Sequence (Q12809 whole entry, looked up): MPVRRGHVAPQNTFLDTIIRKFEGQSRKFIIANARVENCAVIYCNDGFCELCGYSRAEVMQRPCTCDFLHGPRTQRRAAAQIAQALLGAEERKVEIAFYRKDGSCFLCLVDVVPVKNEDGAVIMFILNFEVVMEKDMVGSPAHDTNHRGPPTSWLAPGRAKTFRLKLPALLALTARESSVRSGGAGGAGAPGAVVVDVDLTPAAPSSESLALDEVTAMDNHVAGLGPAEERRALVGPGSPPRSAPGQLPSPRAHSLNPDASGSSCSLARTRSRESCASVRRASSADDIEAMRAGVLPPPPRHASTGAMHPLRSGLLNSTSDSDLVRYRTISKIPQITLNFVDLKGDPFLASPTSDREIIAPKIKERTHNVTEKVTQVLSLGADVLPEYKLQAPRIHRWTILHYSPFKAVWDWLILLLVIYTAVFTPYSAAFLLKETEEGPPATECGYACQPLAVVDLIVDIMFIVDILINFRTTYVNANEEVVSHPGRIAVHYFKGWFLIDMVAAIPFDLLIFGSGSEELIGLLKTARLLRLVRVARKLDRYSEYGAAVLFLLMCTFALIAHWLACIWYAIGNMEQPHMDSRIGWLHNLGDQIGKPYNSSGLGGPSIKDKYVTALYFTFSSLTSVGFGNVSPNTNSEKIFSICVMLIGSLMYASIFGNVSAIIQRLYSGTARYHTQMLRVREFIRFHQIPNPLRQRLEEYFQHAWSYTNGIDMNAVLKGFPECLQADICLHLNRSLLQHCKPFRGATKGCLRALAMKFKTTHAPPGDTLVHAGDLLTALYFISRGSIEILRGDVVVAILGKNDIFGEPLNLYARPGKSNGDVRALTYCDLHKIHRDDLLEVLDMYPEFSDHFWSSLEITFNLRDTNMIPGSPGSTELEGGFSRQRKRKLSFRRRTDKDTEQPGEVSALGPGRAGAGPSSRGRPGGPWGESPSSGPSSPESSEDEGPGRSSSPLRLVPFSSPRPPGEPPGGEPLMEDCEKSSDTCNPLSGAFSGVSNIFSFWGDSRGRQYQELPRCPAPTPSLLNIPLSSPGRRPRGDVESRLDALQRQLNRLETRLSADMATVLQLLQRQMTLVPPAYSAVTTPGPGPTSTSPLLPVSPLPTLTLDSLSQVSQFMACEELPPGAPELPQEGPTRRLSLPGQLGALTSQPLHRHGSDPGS

Structure (SMILES) | hERG current change (%, negative = inhibition) at 1uM [%]
CCOC(=O)Cn1nc(C)c(NC(=O)c2ccc(Cl)c([N+](=O)[O-])c2)c1C | 6.95
CCOc1ccccc1-n1c(=S)sc2c(=O)n(-c3ccc(F)cc3)c(SCC(=O)O)nc21 | 14.3
CC(C)(C)Nc1nc(Nc2ccc([N+](=O)[O-])cc2)nc(NC(C)(C)C)n1 | 17.5
C=CCNc1nc(C(=O)OCC(=O)Nc2cc(S(C)(=O)=O)ccc2Cl)cs1 | 4.15
COc1cccc(CN2C(=O)C(C)N(C(=O)c3c(F)cccc3F)c3ccccc32)c1 (centres unmarked) | 13.1
Cc1cccc(NC(=S)NCC2CCCO2)c1 (centres unmarked) | 3.07
COc1ccc(C2CC(c3ccccc3)Nc3ncnn32)cc1 (centres unmarked) | -8.28
Nc1nnc(SCC(=O)Nc2ccc3c(c2)OCCO3)s1 | 0.499
CC(C(=O)NCC1CCCO1)N(C(=O)c1snc(C(N)=O)c1N)c1ccccc1 (centres unmarked) | 3.21
Cc1ccc(NC(=O)CN2CCN(C)CC2)cc1S(=O)(=O)N1CCOCC1 | -36
C=CCc1ccc(OCCOc2cccc3cccnc23)c(OC)c1 | 10.2
O=c1c2c3c(sc2ncn1-n1cccc1)CCCCC3 | 6.27
Cc1ncc([N+](=O)[O-])n1CC(=O)N/N=C/c1ccccc1F | -13.3
C=CCN1CCCC1CNC(=O)c1cc2[nH]nnc2cc1OC.Cl (centres unmarked) | 11.2
CC(C)(C)c1ccc(C(=O)NCc2ccc(Cl)cc2)cc1 | 14.6
CCC(C)NC(=O)Cc1c(OC)ccc2cc(Br)ccc12 (centres unmarked) | 7.45
O=C(NCc1cccnc1)c1ccccc1-c1nc(-c2ccccc2)no1 | -3.2
CC1CC(C)CN(CCCNC(=O)c2csc3c2CCCC3)C1 (centres unmarked) | -39
Cc1c(C(=O)N(C)CC(=O)Nc2cccc(F)c2)oc2c(Cl)cccc12 | 1.41
Cc1cccn2c(=O)c(C=O)c(N3CCN(C)CC3)nc12 | 5.95
CCn1c2ccccc2c2nnc(SCc3ccc(C(=O)OC)o3)nc21 | 6.58
CNC(=O)c1ccc(-c2nc(-c3ccccc3)cs2)cc1 | 15.1

Structure (SMILES) | hERG current change (%, negative = inhibition) at 1uM [%]
O=C(c1cc2c(ccc3ccccc32)oc1=O)N1CCCC1 | 18.2
CCn1ccc(C(=O)Nc2ccc(S(=O)(=O)Nc3ccccc3OC)cc2)n1 | -7.08
COc1ccc(N2CCN(C(=O)c3ccc4c(=O)n(Cc5ccc6c(c5)OCO6)c(=O)[nH]c4c3)CC2)cc1 | 25
COc1ccc(N(CC(=O)NCCc2ccc(Cl)cc2)S(=O)(=O)c2c(C)[nH]c(=O)[nH]c2=O)cc1 | -0.561
C/C(=N\NC1=NCCN1)c1ccc(Cl)cc1 | -1.91
COc1ccc(NC(=O)CCc2nc(-c3ccc(C)cc3)no2)cc1Cl | 15.9
COc1cc(NC(=O)C2C3C=CC(C3)C2C(=O)O)c(OC)cc1Cl (centres unmarked) | 15.1
CCN1CNC(=S)N(C(C)c2ccccc2)C1 (centres unmarked) | 1.75
CC1CCCCN1CCCNC(=O)C1CCCN(c2ncnc3c2nc2n3CCCCC2)C1 (centres unmarked) | 13.7
O=C1C=C2C=C[C@@H]3CC2(O1)[C@H]1CCCCN31 | 5.28
COc1ccc([C@H]2CC(=O)C=C(c3ccc(CNC(=O)OC(C)(C)C)cc3)C2)cc1 | 7.81
CC(C)CC(=O)NC(=S)Nc1ccc(S(=O)(=O)N2CCN(C)CC2)cc1 | 16
CCOc1ccc(C(=O)Nc2ccc(N3CCN(C)CC3)cc2)cc1Br | 1.4
Cc1ccc(C)c(-n2ccnc2SCC(=O)Nc2cccc(S(=O)(=O)NC3=NCCC3)c2)c1 | -9.61
COC(=O)c1ccccc1-n1c(C)nc(=O)c(-c2ccccc2)c1C | 11.1
Cc1sc(NC(=O)CN(Cc2ccc(F)cc2)C(=O)C(C)(C)C)c(C(N)=O)c1C | 2.43
CCOC(=O)CSc1ccc2nnc(CCNS(=O)(=O)c3ccc(C)cc3)n2n1 | 8.85
CCN1CN=C(NS(=O)(=O)c2ccc(C)cc2)NC1 | 5.8
CCOC(=O)c1oc2ccccc2c1COC(=O)CNC(=O)c1ccccc1OC | -0.254
Cc1nc(=O)c(-c2ccccc2)c(C)n1-c1ccc(O)cc1 | 6.86
CC(C)C[C@H](NC(=O)c1nc[nH]c1C(=O)N1CC[NH2+]CC1)C(=O)OCc1ccccc1.[Cl-] | 13.4
Cn1c(=O)c2c(nc(CN3CCN(c4ccccc4)CC3)n2CCc2ccccc2)n(C)c1=O | 0.316
